Here are results for 94 molecules from PubChem BioAssay AID360 (National Center for Advancing Translational Sciences (NCATS), 2006).

In all, about 48,000 compounds went through this assay and about 550 (1.1%) were called active. About 4% were inconclusive and are not listed. Rule as the data show it: active = potency below about 15 µM; inconclusive = mostly about 16 µM to 33 µM; inactive = weaker than that. The list shows a part of the results. Where only a bound is given, the exact number is not on record here.
Potency is read from the fitted curve at half-maximal effect.

UniProt P04062, sequence (P04062 whole entry, looked up): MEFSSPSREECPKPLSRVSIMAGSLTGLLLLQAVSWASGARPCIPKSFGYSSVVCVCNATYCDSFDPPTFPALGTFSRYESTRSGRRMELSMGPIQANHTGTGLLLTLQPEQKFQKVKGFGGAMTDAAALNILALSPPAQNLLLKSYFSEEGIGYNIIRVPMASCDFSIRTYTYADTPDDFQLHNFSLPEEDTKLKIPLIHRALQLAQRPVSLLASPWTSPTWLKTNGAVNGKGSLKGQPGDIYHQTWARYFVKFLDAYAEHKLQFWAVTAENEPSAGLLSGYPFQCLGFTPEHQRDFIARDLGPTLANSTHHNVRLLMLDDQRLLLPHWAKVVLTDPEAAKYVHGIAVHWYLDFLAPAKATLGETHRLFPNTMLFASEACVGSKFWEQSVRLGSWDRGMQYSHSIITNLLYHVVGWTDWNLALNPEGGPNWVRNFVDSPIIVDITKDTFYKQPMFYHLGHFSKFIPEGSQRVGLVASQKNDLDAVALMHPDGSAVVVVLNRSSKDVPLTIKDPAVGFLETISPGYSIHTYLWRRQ

For this test, the target named is Lysosomal acid glucosylceramidase (Homo sapiens) (UniProt P04062). Nature of the test: Glucocerebrosidase.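 Also: the screen sought inhibitors.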 The note with it: purified enzyme, resorufin glucoside fluorescence (screen aimed at inhibitors), 20 min. A digest of the protocol:
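Normal human glucocerebrosidase (0.2 nM final) was assayed with resorufin β-D-glucopyranoside (30 uM final) in 50mM citric acid/KH2PO4, 10mM sodium taurocholate, 0.01% tween-20, pH 5.9. Compounds were titrated; fluorescence (Ex 548, Em 600) read after 20 min at RT.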
`Cc1ccc(-c2noc(CN3CCC(C(N)=O)CC3)n2)cc1`: the Potency was inactive: > 76.9 µM. As for `CCCCOc1ccccc1NC(=O)C=C(C)C`, the Potency is inactive: > 76.9 µM. In the case of `Cn1nc(CC(=O)Nc2cccnc2N2CCOCC2)c2ccccc2c1=O` it was inactive: > 76.9 µM; in that of `CCOC(=O)c1cccc(NC(=O)C(NS(=O)(=O)c2ccc3c(c2)CCN3C(C)=O)C(C)C)c1` (centres undefined), inactive: > 76.9 µM.

As to `O=C(CN1CC(c2ccccc2)CC1=O)OCc1ccccc1F` (centres undefined), the Potency is inactive: > 76.9 µM. On to `Cn1c(SCc2nc3ccccc3c(=O)[nH]2)nnc1-c1ccco1`, for which the Potency is inactive: > 76.9 µM. As for `O=C1CN(CC(=O)N2CCOCC2)c2ccccc2O1`, the Potency was inactive: > 76.9 µM.

On to `COc1ccc(C2C(=O)N(C3CCCCC3)CC(=O)N2CCc2ccccc2)cc1OC` (centres undefined), for which the Potency was inactive: > 76.9 µM. On to `Cc1nnc(SCC(=O)Nc2nccs2)[nH]c1=O`, for which the Potency is inactive: > 76.9 µM. In the case of `CCNC(=O)Nc1cc2nc(C)n(Cc3ccc(Br)cc3)c2nc1C` it was inactive: > 76.9 µM. In the case of `Cc1ccsc1C(=O)OCC(=O)Nc1sccc1C(N)=O` it was inactive: > 76.9 µM; in that of `CC(C)(C)c1ccc(C(=O)NCCC(=O)NCc2ccco2)cc1`, inactive: > 76.9 µM. In the case of `CCOC(=O)CSc1nnc(C)n1N` it was inactive: > 76.9 µM; in that of `Cc1cc2nc(C)n(CCCN)c2cc1C`, inactive: > 76.9 µM. Consider `CCC(=O)Nc1ccc(NC(=O)c2ccco2)c(OC)c1`, for which the Potency was inactive: > 76.9 µM. In the case of `CCCCCc1c(C)nc(N2CCc3ccccc3C2)[nH]c1=O` it was inactive: > 76.9 µM; in that of `O=C(CCc1ccc(S(=O)(=O)N2CCOCC2)cc1)NCCCN1CCCC1=O`, inactive: > 76.9 µM. Take `CCCCSc1nnc(CCCCCNC(=O)OC(C)(C)C)o1`: the Potency was inactive: > 76.9 µM. Turning to `Cc1ccc(NC(=O)CSCC(=O)O)c(C)c1`, the Potency is inactive: > 76.9 µM.

For `CC1Cc2cc(C(=O)O)ccc2O1` (centres undefined), the Potency is inactive: > 76.9 µM. With `Cc1ccc(C)c(OCC(O)CN2CCC(C)CC2)c1C` (centres undefined), the Potency was inactive: > 76.9 µM.

Regarding `Cc1nn2c(c1-c1ccccc1)NC1=C(C(=O)CCC1)C2c1cccnc1` (centres undefined), the Potency is inactive: > 76.9 µM. In the case of `COCNc1nc(OCC#N)nc(N(C)C)n1`, the Potency was inactive: > 76.9 µM.

As for `Cn1c(N)c(C(=O)CSc2ccc3c(c2)OCCO3)c(=O)n(C)c1=O`, the Potency was inactive: > 76.9 µM.

Regarding `COc1ccc(N2CCN(Cc3cc(=O)oc4ccc(Cl)cc34)CC2)cc1`, the Potency is inactive: > 76.9 µM. Consider `Cc1c(NS(=O)(=O)c2ccc3[nH]c(=O)[nH]c3c2)c(=O)n(-c2ccccc2)n1C`, for which the Potency is inactive: > 76.9 µM. Regarding `Cc1cc2cc(CN(CCCN3CCOCC3)C(=O)NC3CCCCC3)c(=O)[nH]c2cc1C`, the Potency entry is “inactive”. Regarding `CN(C)c1ncc(C(=O)O)cn1`, the Potency was inactive: > 76.9 µM. In the case of `COC(=O)CSc1nnc(-c2ccco2)n1Cc1ccco1` it was inactive: > 76.9 µM; in that of `COc1ccc(-c2nnnn2-c2ccccc2OC)cc1`, inactive: > 76.9 µM; in that of `O=C(Nc1ccccc1)c1ccc(S(=O)(=O)N(CCO)CCO)cc1`, inactive: > 76.9 µM. For the molecule `O=C(CSc1nnc(-c2ccc(Br)cc2)o1)Nc1cccc2ccccc12`, the Potency was inactive: > 76.9 µM. `Cc1cccc(OCCCC(=O)O)c1`: the Potency is inactive: > 76.9 µM.

For `O=C(COc1ccc(S(=O)(=O)N2CCCC2)cc1Cl)NCc1ccco1`, the Potency is inactive: > 76.9 µM. Turning to `CC(C)N(O)C(=O)NC(C)(C)C`, the Potency was inactive: > 76.9 µM. In the case of `Cc1ccsc1C(=O)OCC(=O)c1cc(C)n(CC2CCCO2)c1C` (centres undefined), the Potency was inactive: > 76.9 µM. On to `CCCCn1c(-c2ccccc2)nnc1-c1ccccc1`, for which the Potency was inactive: > 76.9 µM. Take `Cn1c(=O)[nH]c(=O)c2c1ncn2CCN1CCCCC1`: the Potency is inactive: > 76.9 µM. In the case of `Cn1c(=O)c2c(ncn2Cc2cc(-c3ccccc3)no2)n(C)c1=O`, the Potency is inactive: > 76.9 µM. Turning to `N#Cc1ccc(CSc2nnc(-c3ccccn3)n2-c2ccccc2)cc1`, the Potency was inactive: > 76.9 µM.

Regarding `CSc1cccc(NS(=O)(=O)c2cccc3nsnc23)c1`, the Potency is inactive: > 76.9 µM. With `CCOC(=O)C(NC(C)=O)(N1CCc2ccccc2C1)C(F)(F)F` (centres undefined), the Potency was inactive: > 76.9 µM. Regarding `O=C(COC(=O)c1ccccn1)Nc1c(Cl)cccc1Cl`, the Potency was inactive: > 76.9 µM. Turning to `CCc1nnc(NC(=O)c2cnccn2)s1`, the Potency was inactive: > 76.9 µM.

For `O=C(c1ccco1)N1CCN(c2ccc(Cl)c(Cl)c2)CC1`, the Potency is inactive: > 76.9 µM. Turning to `COc1ccc2cc(CN(Cc3ccco3)Cc3nnnn3C3CCCCC3)c(=O)[nH]c2c1`, the Potency is inactive: > 76.9 µM. Take `Cc1cccc(NC(=O)c2cc3n(n2)C(C(F)(F)F)CC(c2ccc4c(c2)OCO4)N3)c1` (centres undefined): the Potency is inactive: > 76.9 µM. On to `O=C(NCCCN1CCOCC1)c1cc2c(s1)CCCC2`, for which the Potency was inactive: > 76.9 µM. As to `Cc1ccc(S(=O)(=O)N2CCOCC2)cc1C(=O)N1CCOCC1`, the Potency was inactive: > 76.9 µM. Under `CC1CN(C(=O)CSc2nnc(-c3ccncc3)n2-c2ccccc2)CC(C)O1` (centres undefined) stands inactive: > 76.9 µM.

Regarding `O=C(c1cccc(F)c1)n1nnc2ccccc21`, the Potency was inactive: > 76.9 µM.

In the case of `COc1ccccc1NC(=O)c1[nH]c(C)c(C(C)=O)c1C`, the Potency was inactive: > 76.9 µM. In the case of `COC(=O)C1CCC(C)(C(=O)Nc2ccccc2)C1(C)C` (centres undefined) it was inactive: > 76.9 µM; in that of `COc1cc(OC)c(C2CC(=O)N3CN(c4ccc(C)cc4)CSC3=C2C#N)cc1OC` (centres undefined), “inactive”; in that of `O=C(CCCn1c(=S)[nH]c2ccccc2c1=O)N1CCOCC1`, inactive: > 76.9 µM. In the case of `CCOCCCNC(=O)C(c1ccc(C)cc1)N(Cc1ccc2c(c1)OCO2)C(=O)CNC(C)=O` (centres undefined) it was inactive: > 76.9 µM.

With `COc1ccc(NC(=O)c2cc3n(n2)C(C(F)(F)F)CC(c2ccc4c(c2)OCO4)N3)cc1OC` (centres undefined), the Potency is inactive: > 76.9 µM. Consider `CC1(C)NC(=O)N(CC(O)COc2ccc(-c3ccc(C#N)cc3)cc2)C1=O` (centres undefined), for which the Potency is inactive: > 76.9 µM.

As to `CC(C)NS(=O)(=O)c1ccc(CCC(=O)NCc2ccco2)cc1`, the Potency is inactive: > 76.9 µM. In the case of `CC(C)C(=O)Nc1nnc(Cc2ccccc2)s1`, the Potency is inactive: > 76.9 µM.

Consider `CCOC(=O)c1c(NC(=O)CSc2nc(C)cc(C)c2C#N)sc(C(C)=O)c1C`, for which the Potency was inactive: > 76.9 µM. `CCCc1cc(-c2n[nH]c(C)c2-c2ccc(C(=O)OCC)o2)c(O)cc1O`: the Potency result is “inactive”. Consider `CCOc1ccccc1Oc1coc2cc(O)ccc2c1=O`, for which the Potency was inactive: > 76.9 µM. On to `O=C1CCC(=O)N1OCCCOc1ccc(Br)cc1Cl`, for which the Potency is inactive: > 76.9 µM. As for `O=C1NCCN1CCNS(=O)(=O)c1ccc2ccccc2c1`, the Potency is inactive: > 76.9 µM. In the case of `Cn1c(C(=O)N2CCN(Cc3ccc4c(c3)OCO4)CC2)cc2sccc21`, the Potency was inactive: > 76.9 µM.

As for `Cc1cc(=O)n2nc(N3CCC(C(=O)N4CCN(Cc5ccccc5)CC4)CC3)sc2n1`, the Potency is inactive: > 76.9 µM. Turning to `CCn1c(=O)c(C(=O)Nn2c(C)nc3ccccc3c2=O)c(O)c2ccccc21`, the Potency is inactive: > 76.9 µM. Consider `O=C(c1cccc(S(=O)(=O)NCCOc2ccccc2)c1)N1CCN(c2ncccn2)CC1`, for which the Potency is inactive: > 76.9 µM.

In the case of `CCOCCOC(=O)CCSc1n[nH]c(=O)[nH]c1=O`, the Potency was inactive: > 76.9 µM. `O=C(Nc1c(C(=O)O)[nH]c2ccccc12)NC1CCCCC1`: the Potency was inactive: > 76.9 µM. With `O=C(CN1C(=O)CSC1=O)Nc1ccc2c(c1)OCCO2`, the Potency was inactive: > 76.9 µM. `O=C(C1CCN(C2CC(=O)N(Cc3ccccc3)C2=O)CC1)N1CCCCCC1` (centres undefined): the Potency was inactive: > 76.9 µM. In the case of `CCCCC(=O)Nc1ccc(C(N)=O)cc1`, the Potency was inactive: > 76.9 µM.

As for `COc1ccccc1NC(=O)CSc1nnc(CNC(=O)COc2ccc(Cl)cc2)o1`, the Potency is inactive: > 76.9 µM. Regarding `CCCC(=O)Nc1cc(OCC)c(NC(=O)NC2CCCCC2)cc1OCC`, the Potency was inactive: > 76.9 µM. With `CCCCCCNC(=O)c1c(O)c2cccc3c2n(c1=O)CCC3`, the Potency result is “inactive”.

Turning to `O=S(=O)(NCCSc1nnnn1-c1ccccc1)c1cccs1`, the Potency was inactive: > 76.9 µM. On to `CCN(CC)S(=O)(=O)c1ccc(NC(=O)C(OC)c2ccccc2)cc1` (centres undefined), for which the Potency is inactive: > 76.9 µM. On to `Cc1cc(=O)oc(C)c1C(=O)NCC1COc2ccccc2O1` (centres undefined), for which the Potency was inactive: > 76.9 µM. For `Cn1nc(C(C)(C)C)cc1C(=O)NCc1ccc(N2CCCC2=O)cc1`, the Potency is inactive: > 76.9 µM.

Regarding `COC(=O)c1ccccc1NC(=O)c1ccco1`, the Potency was inactive: > 76.9 µM. Turning to `O=C(CSc1nnc(-c2ccco2)o1)NC1CC2CCC1C2` (centres undefined), the Potency is inactive: > 76.9 µM. On to `COc1cc(C)c(S(=O)(=O)Nc2ccc(CC(=O)O)cc2)cc1C`, for which the Potency is inactive: > 76.9 µM.

For `CCOC(=O)Cn1nc(-c2ccc(Cl)cc2)ccc1=O`, the Potency is inactive: > 76.9 µM. Take `Cc1ccc(CNc2nc3c([nH]2)c(=O)n(C)c(=O)n3C)cc1`: the Potency is inactive: > 76.9 µM. For the molecule `COc1ccccc1NC(=O)C1CCN(c2ncccn2)CC1`, the Potency was inactive: > 76.9 µM. On to `Cc1cccc(C)c1NC(=O)CSc1nnc(-c2ccoc2C)n1C`, for which the Potency was inactive: > 76.9 µM. For the molecule `CCOC(=O)C1=C(C)NC(=O)NC1c1cc2c(cc1Br)OCO2` (centres undefined), the Potency was inactive: > 76.9 µM. `N#CC(C(=O)NC1CCCCC1)c1nc2ccccc2nc1N1CCOCC1` (centres undefined): the Potency was inactive: > 76.9 µM. For `Cc1cc(C)nc(NS(=O)(=O)c2ccc(NC(=O)CCC3COc4ccccc4O3)cc2)n1` (centres undefined), the Potency is inactive: > 76.9 µM.

Regarding `Cn1c(COc2ccccc2)nnc1SCc1nc2ccccc2[nH]1`, the Potency was inactive: > 76.9 µM. As for `CCN(CC)S(=O)(=O)c1cccc(C(=O)Nc2ccccc2)c1`, the Potency is inactive: > 76.9 µM. For the molecule `CC(C)(O)C#Cc1ccc(C(=O)N2CCCC2C(=O)O)s1` (centres undefined), the Potency was inactive: > 76.9 µM.
